Assay results reported in PMC4336329 (PLoS ONE, 2015).
Among all 310,000 compounds or so, about 2,200 (0.71%) showed an effect of 50% or more. The effect is printed as a negative number. Some of the results follow.

target: human ether-à-go-go-related gene (hERG) potassium channel (human, UniProt Q12809); assay: primary screen, population patch clamp on CHO cells stably expressing hERG
Sequence (Q12809 whole entry, looked up): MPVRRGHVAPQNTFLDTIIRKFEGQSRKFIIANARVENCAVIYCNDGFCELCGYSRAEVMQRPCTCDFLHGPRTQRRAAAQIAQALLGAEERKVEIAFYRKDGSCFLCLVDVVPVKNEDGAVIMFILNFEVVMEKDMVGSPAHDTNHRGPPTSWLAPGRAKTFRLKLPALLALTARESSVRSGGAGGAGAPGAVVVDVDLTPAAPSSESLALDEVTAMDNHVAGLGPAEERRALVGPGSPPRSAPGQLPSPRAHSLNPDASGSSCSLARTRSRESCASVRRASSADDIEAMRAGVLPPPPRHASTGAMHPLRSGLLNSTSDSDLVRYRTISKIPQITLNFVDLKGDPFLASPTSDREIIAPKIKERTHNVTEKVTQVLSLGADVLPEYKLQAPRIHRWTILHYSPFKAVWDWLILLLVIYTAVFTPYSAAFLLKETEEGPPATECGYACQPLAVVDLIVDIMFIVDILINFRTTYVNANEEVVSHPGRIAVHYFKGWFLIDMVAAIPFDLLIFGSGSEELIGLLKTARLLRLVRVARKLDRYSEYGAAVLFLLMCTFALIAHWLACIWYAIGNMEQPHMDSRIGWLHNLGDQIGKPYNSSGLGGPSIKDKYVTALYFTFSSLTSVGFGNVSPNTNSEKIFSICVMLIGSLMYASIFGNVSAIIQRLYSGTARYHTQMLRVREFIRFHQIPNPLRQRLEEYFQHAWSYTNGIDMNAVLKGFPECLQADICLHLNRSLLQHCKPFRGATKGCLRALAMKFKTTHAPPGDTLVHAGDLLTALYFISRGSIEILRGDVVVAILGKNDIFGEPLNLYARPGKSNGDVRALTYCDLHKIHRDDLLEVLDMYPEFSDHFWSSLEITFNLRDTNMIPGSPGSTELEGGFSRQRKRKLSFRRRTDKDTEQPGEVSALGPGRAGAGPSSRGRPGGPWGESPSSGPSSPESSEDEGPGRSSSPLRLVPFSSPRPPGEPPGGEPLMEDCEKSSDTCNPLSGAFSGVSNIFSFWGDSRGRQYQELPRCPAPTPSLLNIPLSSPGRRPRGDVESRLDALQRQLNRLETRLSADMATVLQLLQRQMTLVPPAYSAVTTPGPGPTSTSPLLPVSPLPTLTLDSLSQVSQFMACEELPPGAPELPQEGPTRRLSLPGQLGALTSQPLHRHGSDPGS

| SMILES | hERG current change (%, negative = inhibition) at 1uM |
| --- | --- |
| N#C/C(=N\Nc1ccc(S(=O)(=O)N2CCCCCC2)cc1)C(N)=S | 11.3% |
| Cc1cccc(OC(=O)NCCOC(=O)N(O)c2ccc(Cl)cc2)c1 | 1.04% |
| O=C(NCc1nc2ccccc2[nH]1)C1=C[C@@H](C2CC2)C[C@@H](OCc2ccc(CO)cc2)O1 | 7.48% |
| Cc1ccc(C(=O)c2cc([N+](=O)[O-])ccc2N2CCOCC2)c(C)c1 | 6.27% |
| CC(OC(=O)C12CC3CC(CC(O)(C3)C1)C2)C(N)=O (centres unmarked) | 9.69% |
| O=C(N1CCN(c2ccc(F)cc2)CC1)C1(c2cccs2)CCOCC1 | 6.11% |
| COc1cc(OC)c2cc(C(=O)N/N=C/c3cccc(OC)c3O)[nH]c2c1 | 12.8% |
| O=C(CSc1ccc(-c2ccc(-n3cccn3)cc2)nn1)Nc1ccccc1F | 18% |
| O=C(CSc1cn[nH]n1)Nc1ccc(O)c(C(=O)O)c1 | 8.3% |
| C=CCn1c(Cn2nnc3ccccc32)nnc1SCC(=O)N/N=C/c1cc(Br)cc(OC)c1O | 14.4% |
| C=CCN1C(=O)N/C(=C/c2ccc(N3CCOCC3)o2)C1=O | 4.6% |
| O=C(NCC(c1ccco1)N1CCc2ccccc2C1)c1ccc(Cl)cc1 (centres unmarked) | -17.2% |
| O=c1cnnc(N/N=C/c2ccccn2)[nH]1 | 25.5% |
| Cc1ccc(C(OCC(C)(C)C[N+](C)(C)C)c2ccccc2)cc1.[I-] (centres unmarked) | -1.33% |
| O=C(NC(=S)Nc1ccccn1)c1ccc([N+](=O)[O-])cc1 | 5.46% |
| Cc1cc(C(C2C(=O)CC(C)(C)CC2=O)C2C(=O)CC(C)(C)CC2=O)cc(C)c1OC(F)F | -3.24% |
| Cc1nnc2ccc(-c3ccc(NC(=O)Cc4cccs4)cc3)nn12 | 4.96% |
| CCOC(=O)N1CCN(C(=O)COc2ccc(S(=O)(=O)NCc3ccccc3)cc2)CC1 | -16% |
| Cc1cccc(NC(=O)/C(C#N)=C/c2cccc([N+](=O)[O-])c2)n1 | 16% |
| COc1ccc(CCNCc2c(OC)ccc3ccccc23)cc1.O=C(O)C(=O)O | 5.29% |
| CCCn1c2c(c(O)c(C(=O)Nc3ncccc3C)c1=O)CCCC2 | 5.67% |
| CCn1c(SCC(=O)NC2CCCC2)nnc1-c1cccnc1 | 11.2% |
| CCOc1ccc(OCC)c(NC(=O)C2CCN(c3cnccn3)CC2)c1 | 11.5% |

| SMILES | hERG current change (%, negative = inhibition) at 1uM |
| --- | --- |
| O=C(c1cc(C2CC2)nn1-c1ccccc1)N1CCN(Cc2c(F)cccc2Cl)CC1 | -19.4% |
| O=C(N/C=C/c1ccco1)NCc1ccccc1 | 15.2% |
| COc1ccc2nc(SCC(=O)Nc3ccccc3)[nH]c2c1 | 10.6% |
| CCCC(=O)Nc1nnc(S(=O)(=O)N(CC(C)C)c2ccccc2)s1 | 14.9% |
| O=C(NNC(=S)NC(=O)c1cccs1)c1ccc(NC(=O)c2ccccc2)cc1 | 15.3% |
| O=C(O)CC(c1ccccc1F)N1Cc2ccccc2C1=O (centres unmarked) | 5.14% |
| O=C(Cn1ncc2c([nH]c3ccccc32)c1=O)N1CCN(c2ccccc2F)CC1 | 2.27% |
| COc1cc([N+](=O)[O-])ccc1NC(=O)Cc1ccccc1 | 7.83% |
| Cc1ccc2nc(N(CCN(C)C)C(=O)c3cc(Cl)sc3Cl)sc2c1.Cl | 8.61% |
| COCCN(C(=O)C1=COCCO1)c1c(N)n(Cc2ccccc2)c(=O)[nH]c1=O | 20% |
| CN1CCN(CC(=O)N/N=C/c2ccc(F)c(F)c2)CC1 | 14.1% |
| COc1cc(/C=C(/C#N)C(=O)c2c(C)[nH]c3ccccc23)ccc1OCC#N | 9.37% |
| CCc1ccc2[nH]cc(C(=O)OCCOC)c(=O)c2c1 | 12.3% |
| O=C(O/N=C\c1ccc(N2CCCCC2)c([N+](=O)[O-])c1)c1cccc(C(F)(F)F)c1 | 12.6% |
| Cc1cccnc1NC(=O)Nc1ccc(F)cc1 | 2.47% |
| COc1ccc(/C=N/NC(=O)c2c(-c3ccccc3)noc2C)cc1[N+](=O)[O-] | 3.27% |
| CC(Nc1ccc(Cl)c(Cl)c1)C(=O)NN (centres unmarked) | 11.6% |
| Cl.NS(=O)(=O)c1ccc(CCNCc2cc(Br)ccc2OCc2ccccc2)cc1 | -44.9% |
| Cc1ccccc1NS(=O)(=O)c1cc(C(=O)Nc2ccccc2-c2ccccc2)ccc1Cl | -1.32% |
| O=C(Cc1coc2ccc3ccccc3c12)NC1CCCc2ccccc21 (centres unmarked) | 6.68% |
| O=C(Nc1ccncc1)c1ccccc1Cl | 14.8% |
| CCNC1=C(Cl)C(=O)c2ccccc2C1=O | 14.3% |
| Cc1ccn2cc(CNS(=O)(=O)c3cccs3)nc2c1 | -4.47% |

| SMILES | hERG current change (%, negative = inhibition) at 1uM |
| --- | --- |
| CCOC(=O)C1(CC2CCCCO2)CCN(S(=O)(=O)c2cccc(F)c2)CC1 (centres unmarked) | 7.21% |
| COc1ccc(/C=N/NC(=O)Cn2cc(C(F)(F)F)ccc2=O)cc1 | 2.71% |
| O=C1NC(c2ccc3c(c2)OCO3)Oc2ccccc21 (centres unmarked) | 7.7% |
| C/C(N)=C(/C#N)C(=O)COC(=O)CCCNC(=O)c1ccc(Cl)cc1 | 28.8% |
| Cl.c1ccc(CNCc2ccco2)cc1 | 15.7% |
| O=C(N/N=C/c1cccc(OCc2ccccc2)c1)c1ccc(Br)o1 | 16% |
| CCS(=O)(=O)c1ccc2oc(SCC(=O)N3CCCCC3)nc2c1 | 0.777% |
| COc1ccnc2c1c(=O)n(Cc1ccc(Cl)cc1)c(=O)n2C | 19% |
| Cc1ccccc1NS(=O)(=O)c1ccc(OCC(=O)NCc2ccco2)cc1 | 5.03% |
| O=C(Nc1ccccc1N1CCCC1)C1CCN(S(=O)(=O)c2ccccc2)CC1 | 12.1% |
| O=S(=O)(Cc1cc(NCc2ccccc2)nc(-c2ccccn2)n1)c1ccccc1 | 1.24% |
| CCCCC(O)CN1CCC(c2ccccc2)CC1 (centres unmarked) | -36.3% |
| Cc1ccc(OCC(O)CN2C(=O)NC(C)(C)C2=O)cc1C (centres unmarked) | 11.8% |
| O=C(/C=C/c1ccco1)NC1CCCC1 | 6.16% |
| Cc1cc2ncn(C(=O)c3cc(-c4ccccc4)nc4ccccc34)c2cc1C | 10.9% |
| COC(=O)CNc1cc(S(=O)(=O)N2CCCCC2)ccc1Oc1cccc(C)c1 | 4.73% |
| CCOC(=O)CN1C(=O)N[C@@H](c2ccco2)C(C(C)=O)=C1C | 18.5% |
| O=C(CSc1nnc(-c2ccco2)o1)N1c2ccccc2CCc2ccccc21 | 9.21% |
| CC(C)(C)C(=O)OCc1cn(-c2ccccc2)nn1 | 0.93% |
| CCOc1ccc(NC(=O)CN2CCN(CC(=O)Nc3ccc(C(N)=O)cc3)CC2)cc1 | -36.9% |
| COc1ccc(S(=O)(=O)Nc2ccccc2C(=O)N2CCOCC2)cc1Cl | 2.55% |
| O=C1NC(=O)C2(Cc3ccccc3N3CCCC32)C(=O)N1c1cccc(Cl)c1 (centres unmarked) | -8.75% |
| COc1ccc(C(c2sc3nc(C)nn3c2O)N2CCC3(CC2)OCCO3)cc1 (centres unmarked) | 5.67% |

| SMILES | hERG current change (%, negative = inhibition) at 1uM |
| --- | --- |
| CC1CCN(CCC(=O)Nc2ccc(Cl)cc2)CC1.Cl | 2.88% |
| COc1cc(NC(=O)c2cccs2)c(OC)cc1NC(=O)c1cccs1 | 9.57% |
| CCCc1c(OCCCCc2nn[nH]n2)ccc(C(C)=O)c1O | 9.67% |
| CCC1CCCCN1CCNS(=O)(=O)c1ccc2c(c1)oc(=O)n2C (centres unmarked) | 15.9% |
| Cc1cc(F)ccc1N1CCC(N2CCN(C(C)C)C(CCO)C2)CC1 (centres unmarked) | 3.39% |
| Cc1cccc(OCC(O)CN2CC3(C)CC2CC(C)(C)C3)c1 (centres unmarked) | -21.1% |
| CC(C)c1ccc(NC2CCCN(C(=O)CCN3CCCO3)C2)cc1 (centres unmarked) | 11.2% |
| CC(C)c1ccc(N(C(=O)CNC(=O)c2ccco2)C(C(=O)NC2CCCC2)c2ccncc2)cc1 (centres unmarked) | 7.75% |
| CCNc1nc(SCC(=O)OC)nc(N2CCOCC2)n1 | 8.98% |
| O=C(O)C1C2C=CC(C2)C1C(=O)Nc1ccccc1Br (centres unmarked) | 10.9% |
| O=C(COc1ccc(C(=S)N2CCOCC2)cc1)N1CCCC1 | 3.36% |
| COCCn1c(SCC(=O)Nc2nnc(C)s2)nnc1-c1cc2ccccc2cc1O | 1.16% |
| COc1ccc(S(=O)(=O)N2CCN(C3CC4CCC3C4)CC2)cc1.O=C(O)C(=O)O (centres unmarked) | 12.5% |
| Cc1cc2nn(-c3cccc4ccccc34)nc2cc1N | 10.2% |
| CCOc1ccccc1OCCCC(=O)N1CCN(S(=O)(=O)c2ccc(C)cc2C)CC1 | 3.39% |
| Nc1c(-c2ccccc2)cnn1-c1ccccc1 | 8.47% |
| CN(C)CCNc1ccc(-c2nn(C)c(=O)c3ccccc23)cc1[N+](=O)[O-] | 10.2% |
| CO/N=C(/CNC(=O)c1ccc(F)cc1)c1ccc(Cl)cc1 | 16.8% |
| CCOc1cccc(N2C(=O)CC(NNC(=O)c3ccc(Br)o3)C2=O)c1 (centres unmarked) | 10.8% |
| CCC1(C)Cc2c(sc3nnn(CC(=O)Nc4ccccc4)c(=O)c23)CO1 (centres unmarked) | -6.5% |
